# Assay results from the supplement of paper PMC3334620.
# In all, about 33,000 sequences were measured (“E-score (-0.5 to 0.5)”: median about -0.013, highest 2% from about 0.3 on). The list shows a part of the results.
# Target: T1, Msn1 (UniProt P22148)
# T1 sequence: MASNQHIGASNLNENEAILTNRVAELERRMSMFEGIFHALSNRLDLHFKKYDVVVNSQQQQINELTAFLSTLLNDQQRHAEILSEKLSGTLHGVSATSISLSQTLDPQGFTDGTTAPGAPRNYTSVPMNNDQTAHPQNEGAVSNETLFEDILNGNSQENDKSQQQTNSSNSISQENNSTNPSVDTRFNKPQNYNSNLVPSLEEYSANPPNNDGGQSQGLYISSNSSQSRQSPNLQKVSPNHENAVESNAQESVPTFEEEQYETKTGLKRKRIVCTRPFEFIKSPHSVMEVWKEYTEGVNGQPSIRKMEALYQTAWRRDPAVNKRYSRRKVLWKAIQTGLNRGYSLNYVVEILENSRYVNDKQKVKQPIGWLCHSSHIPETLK
# Assay: PBM E-score (8-mer binding enrichment) (E-score (-0.5 to 0.5)); higher = stronger / more preferred TF binding; most listed sequences are background and not binding sites
# Conditions: protein concentration: 200 nM; construct: GST-full length
# Method in brief: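 PURExpress in vitro transcription/translation supplied GST-tagged yeast transcription factors, either full-length or DNA-binding domain. Applied at about 100-200 nM to universal all-10-mer Agilent arrays double-stranded by primer extension, the bound protein was detected with fluorescent anti-GST. E-scores, modified Wilcoxon-Mann-Whitney statistics, were given by the Universal PBM Analysis Suite to ungapped eight-base words pooled with their reverse complements after masliner normalisation.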
row,Sequence,PBM E-score
1,CCATTGAA,0.0256
2,AAGGCGAT,-0.0895
3,CTGGGCGA,-0.159
4,ATCGCGAA,0.198
5,GCCTCACA,-0.0461
6,ATCGACCG,0.0828
7,CGAGTTGC,0.0501
8,CGAGAAGA,-0.205
9,CGAAATCA,0.232
10,ACTGTTAT,0.0872
11,AAGTAACT,0.0297
12,ATCTGCAT,-0.0358
13,ACAAACGA,0.331
14,CCAGCCGG,-0.117
15,TCAGTGGA,-0.104
16,TCAAAAAA,0.192
17,AGTGATAG,-0.00506
18,TGCACGAA,0.0944
19,ATGAGTGA,0.12
20,AGGTAAGC,-0.0845
21,TCAACCCA,0.0465
22,CAGAAGTA,0.104
23,CTCGGCTC,-0.0214
24,GCAGCCAA,0.00179
25,CATGGGGC,-0.163

row,Sequence,PBM E-score
1,CACTGAGG,-0.232
2,ATTCTGAC,0.0721
3,CCAGAATC,-0.0285
4,GCTCTAAC,-0.158
5,TGTAGTAA,0.166
6,AATTGAAA,0.098
7,CATCATTC,-0.0311
8,ATGTGAAG,0.0467
9,GATAATCA,0.0779
10,ACAGTCAG,0.0633
11,ACAATTAA,0.266
12,CACCAACC,-0.171
13,AGAAGCGA,0.135
14,CAATCAGA,-0.112
15,CACACTGG,-0.259
16,CGTGTCGC,0.202
17,GAGCCATA,-0.0161
18,AAACCATA,0.0394
19,AAGAGCAC,-0.0794
20,CCACGCGA,-0.00597
21,GAGCTAGC,0.0321
22,AAGATGAG,-0.079
23,GATAGTGA,0.0164
24,CCAAGGGG,-0.117
25,CTCGCTAC,-0.183

row,Sequence,PBM E-score
1,ATAACAGG,-0.136
2,CGTTAACA,0.128
3,CGGGAGTC,-0.107
4,AATAACGT,0.147
5,AACACTTA,-0.00275
6,GCGAAAAC,0.08
7,CATGGATA,-0.183
8,ACTTGGTA,-0.0483
9,ATACAGTG,0.068
10,GGGGTACC,-0.335
11,CTGGGGAC,-0.152
12,AGTTATTC,0.0278
13,GTCGTGCA,0.0447
14,AAAGACTG,-0.176
15,AAGCCTTA,-0.139
16,AGTGGTTA,-0.104
17,AGGGTAGG,-0.212
18,CCATACGC,0.0172
19,GCGGCGAA,0.00043
20,GGGCTTAA,-0.178
21,TAGTAGAA,0.1
22,ATTGTAGA,0.0176
23,CAACTGGC,-0.0109
24,CCTCCACC,-0.365
25,ACGATCAA,0.00072

row,Sequence,PBM E-score
1,GCTGACCC,-0.216
2,GAGATCGA,0.0169
3,ACGGAGCA,-0.0424
4,ACTTTACT,0.139
5,GGTAGAGA,-0.104
6,AAATCGCG,0.106
7,TCTACTAA,0.114
8,CAATACCA,0.248
9,TGCGCGAA,0.0766
10,TCCATCGA,-0.0334
11,GATTCGAC,0.108
12,ATGGATCC,0.171
13,TCGGAAGA,0.149
14,ATGGGGTA,0.00897
15,CGAGGACG,0.0859
16,GTACCAAA,0.259
17,GGGTTGTA,0.00666
18,GGCTCTTA,-0.034
19,AACCTCAA,0.0396
20,CATATGCG,-0.00554
21,GTCCGGTA,0.106
22,ATTTACCG,0.121
23,CGTATTTC,0.075
24,GTCGAGTA,-0.0563
25,AACGCGAA,0.0718

row,Sequence,PBM E-score
1,GTTAGACA,0.33
2,AGTGAGTA,0.159
3,ACGCCGCC,-0.445
4,AATCCGGA,0.297
5,AATGCGTG,0.0114
6,CGCCTCAA,-0.0298
7,CACTTTTA,0.0114
8,CGTGTGTA,0.141
9,ATAACTAT,0.138
10,TACTAATA,0.0704
11,GGCATGAC,-0.192
12,GCGCGCAC,0.0728
13,CGGTGACG,-0.014
14,CTCATCTC,-0.0641
15,CCAGCGGC,-0.0286
16,CTAGTAGC,-0.165
17,GCCCAGAA,0.0114
18,CCTTAGCG,-0.0361
19,ATTGAAGC,0.0586
20,CCAACACA,0.173
21,TATTTGAA,0.123
22,AATCGCAT,0.00728
23,AAGGTCTA,-0.106
24,ACTCATAC,0.0542
25,CTTAGACA,0.232

row,Sequence,PBM E-score
1,ACTACGAG,-0.195
2,CCGCTGAA,0.0328
3,CCTGCTCA,0.0773
4,GCCTTGAC,-0.0138
5,AAGTAACA,0.129
6,AAAAAGGT,0.0779
7,AATAGAAC,0.0222
8,GCGTTGAA,0.144
9,CCGCGCCA,-0.195
10,CAGTTGAC,0.102
11,ACACCGTC,0.0288
12,AGCGCCCG,-0.161
13,CTAGTAGA,0.0356
14,CTTGGGAA,0.0403
15,CACGGCCC,-0.134
16,CCTAACCC,-0.339
17,GTCAGGAC,0.316
18,AACTAGAA,0.062
19,ACGATGCT,-0.16
20,GATGTCCC,0.462
21,ATTTTCGA,0.111
22,GCCTTAGC,-0.0625
23,GTGGTCTA,-0.126
24,AAGATTAG,0.0791
25,AAACTCCC,-0.119

row,Sequence,PBM E-score
1,ATATGGAC,0.356
2,CCCATTCC,-0.377
3,CTTCAACC,0.0211
4,GCAGGCCC,-0.191
5,GGGAGTAC,-0.149
6,ATCCATAC,0.0973
7,ACCCAACG,-0.00724
8,GGGTAGAA,-0.0543
9,ATGAAATA,0.0873
10,AATCGCTA,-0.00167
11,CCTAAAGC,-0.148
12,TGAACTCA,0.0356
13,GCCCTGAA,-0.0545
14,GACACCGA,0.28
15,AGCAGCTA,0.0463
16,AACATAAG,0.201
17,AACCCACC,-0.163
18,CACTCAGG,-0.183
19,GATACTTA,0.0239
20,CCAATCGA,0.0315
21,AAGCCATG,-0.0712
22,ATGTTAAC,0.163
